# Reference: PubChem BioAssay (NCI)
# The source holds several records for some structures; these can differ, active in one and inactive in another.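 Growth was measured after 48 h exposure to one concentration of compound in 96-well plates. Values under 10 count as active.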 For part of its entries the source gives two or more results. They are shown here; other results are not. The source may hold further records. The screen tested this drug many times, at its own concentration, as given; one value stands for one run. Signs of the kind (2×) stand for listed records that agree.
# Test system: MDA-MB-231 breast
# Assay: NCI-60 one-dose screen, 48 h (100 = growth as untreated, 0 = no growth, -100 = all killed)
smiles,measurement,setting,value
COc1cccc2c1C(=O)c1c(O)c3c(c(O)c1C2=O)C[C@@](O)(C(=O)CO)C[C@@H]3OC1CC(N)C(O)C(C)O1 (stereo not given in full),growth,"0.25 µM, runs of 2011","inactive: 79.7, 89.4, 71.9, 83.7, 83.1, 74.3, 99.2, 90.6, 95.7, 94.2 (2×), 88.8, 110, 114, 99.6, 109 (2×), 99, 86.3 (2×), 84.9, 90.3, 91.2, 86.5, 98, 88.7, 95.3, 84.6, 91.6, 81, 69.8, 75.8, 78.5, 63.6 (2×), 71, 61.4, 68.5, 65.2, 66, 58.8, 64.9, 84.2 (2×), 84.1, 78.6, 85.9, 84.7, 82.4, 94.4, 85.4, 92.1, 98.2, 77.6%"
same,growth,"0.25 µM, runs of 2012","inactive: 79, 70.2, 80.4, 82.2, 67.7, 71.6, 77.8, 87.2, 86, 77, 84.2 (2×), 79.3, 85.4 (2×), 94.2 (2×), 72.3, 79.8, 89.2, 95, 77.2, 84.9, 101, 90.7, 79.7, 112, 109, 102, 94.9, 97, 108, 88.8, 96.9, 90.1, 73.2, 86.6, 84.7, 65.7, 82.7, 86.5, 81.4, 92.8, 95.4, 96.7, 103 (2×), 98.2, 96.4, 91.8, 90.4, 95.3, 105, 92.1, 85, 89.6, 83.6, 83.9, 66, 76.7, 90.8, 87.7, 74.8, 87.6, 85.8, 91.4, 85.7, 86.8, 91.2, 84.1, 82.5%"
same,growth,"0.25 µM, runs of 2013","inactive: 86.2, 83.2, 92.7, 96, 81.1, 79.1, 88.7, 84.5, 106 (2×), 99.3, 78.2, 84.9 (3×), 87.3, 81.8, 94.4 (2×), 93.3, 90.5, 98.8, 107, 91.7, 89.5 (3×), 93.8, 97.5, 105 (2×), 99, 103, 86.8 (3×), 86, 87.8, 79.8, 88.4, 89.4, 90.9, 85.2, 79, 78.5, 82.2, 76.7 (2×), 82.9, 84, 85.9, 88.1, 73.2 (2×), 82.6, 74.5, 79.6 (2×), 82.7, 84.3, 99.9, 71.7, 81, 85.1, 68.5, 73.7, 71.4, 67.9 (2×), 57.9, 68.8, 83.8, 79.7, 79.4, 70.2, 68, 76.6, 78.7, 72.3%"
same,growth,"0.25 µM, runs of 2014","inactive: 62.2, 62.7, 59.8, 49.7, 53.1, 59.7, 56.2, 68, 81.2 (2×), 80.6, 85.3, 86.3, 78.8, 76.4, 78.4, 76.8, 73.3, 75.6, 65.6, 84.1, 86.8, 76.3 (3×), 79.2, 82.8, 80 (2×), 90.9, 85.9, 96.1, 97.9, 68.3, 58.7, 70.9, 71.5, 82.5, 85.6, 73.5, 54.8, 60.1, 78.7, 71.4, 73.7, 66.2, 71.6, 83.3, 73, 82.2, 70.3, 47.5, 58.1, 58.8, 57.8, 55.8, 54.9, 58.9, 62.1, 57.1, 58.2, 69.2, 68.5, 78.1, 68.4, 61.1, 69.8, 67.4, 87.2, 97.7, 61, 73.2, 61.4%"
same,growth,"0.25 µM, runs of 2015","inactive: 65, 67.3, 73.3, 59.8, 59.6 (2×), 61.2, 65.5, 68.3, 61.9, 52.9, 50.7, 73.8, 65.4, 73, 65.1, 71.6 (2×), 70.2, 62.8, 77.7 (2×), 63.6, 74.1, 67.6, 69.8, 60.2, 58.5 (2×), 69.7, 75.5 (2×), 63.3, 65.6, 72.6, 70.7, 65.8 (3×), 52.1, 73.1, 64.4, 56.8, 51.8, 62.3, 54.5 (2×), 67.4 (2×), 53.7, 51.5, 44.5, 49, 68.9, 49.2, 49.5, 65.2 (2×), 47.1, 52.5, 57.8, 72.1, 53.4, 60.4, 78.4, 82.3, 72, 66.9, 54.9, 59, 69, 55.3, 72.3%"
same,growth,"0.25 µM, runs of 2016","inactive: 58.9 (2×), 54.4, 57.4, 87.9, 82.4, 76.7, 79.6 (2×), 81.4 (2×), 85.3, 82.6, 78.4 (2×), 81.5, 80.8, 80.3, 71.2, 70.7, 79.4 (2×), 65.5, 60.5, 68, 70.3, 68.3 (3×), 63.1, 71, 69.5, 65.1, 62.2, 63.8, 60, 64.4, 65.6, 70.2, 74.6 (2×), 86.2, 78.1, 81.3, 80.1, 77.7, 81.2, 73.2, 82.9, 84.6 (2×), 79, 76.3, 74.2, 69.9, 72.5 (2×), 65, 80.6, 73.9, 70.8, 71.4, 71.8, 67, 82.5, 74.1 (2×), 75.8, 76.1, 76, 69.6 (2×), 77.6, 86.5, 87.8, 96, 88.5, 91.3, 84.1, 89.5, 89.2, 89.7, 76.5, 76.9, 79.5, 75.5, 67.6%"
same,growth,"0.25 µM, runs of 2017","inactive: 64.6, 66.4 (2×), 68.7 (3×), 78.4, 71.9, 71 (2×), 64.2, 62.1, 81.3, 77 (2×), 73.5, 72, 70.9 (2×), 67.1, 66.6, 80.4, 73.4 (2×), 63.5, 67.2, 66.9, 61.2, 74.7, 70.2 (4×), 76.4, 73.2, 68.8, 71.7, 72.7, 67.9, 72.5, 79.7, 73.7 (2×), 72.1, 70.7, 70.5, 73.9, 69.7, 69.5, 69.9 (2×), 68.3, 81.1, 65.1, 68.1 (2×), 64.8, 60.2, 66, 65.5, 70.4, 65.8, 71.2, 59.6, 61.9, 54.4, 58.4, 55.7, 53.2, 52.5, 65.6, 67, 66.1, 73.8, 67.5, 83.1, 97.1, 77.6, 76.2, 68.4, 73.3, 62.8%"
same,growth,"0.25 µM, runs of 2018","inactive: 65.9, 73.5 (2×), 69.1, 71, 67.1, 67.8, 70.8, 71.9 (2×), 68.8, 68.4, 62.5, 81.4, 71.4, 79.7, 73.2, 78.6, 73.9, 83.3, 76.1, 80.8, 78.2, 71.8, 72.7, 65.5, 68.5, 72.6, 87.6, 70.9 (2×), 63.1, 66, 76.6, 71.6, 67.7, 61.7, 73.1, 76.5, 65.8 (2×), 56.7, 63.3, 61.8, 59.5, 67.4, 73.4, 81.5, 79, 73.8, 60.8, 75.5%"
same,growth,"0.25 µM, runs of 2019","inactive: 59.5, 62.1, 67.4 (2×), 59, 66.7, 62.4, 65.5 (2×), 64.6, 66, 70.5, 68, 72.1, 66.9 (3×), 70.2, 54.8, 53.4, 66.8, 72.7, 65.2, 68.9, 75.5, 69.5, 78.3, 66.6 (2×), 71.6, 70.9, 70.3, 71, 68.8, 70.4, 69.6, 69, 57, 60.8, 62.6, 60.1, 62.5, 61.5%"
same,growth,"0.25 µM, runs of 2020","inactive: 56.5, 49.7, 62.4, 59.5 (2×), 60.7, 63.9, 57.4, 55.8, 65.1, 67.6, 66.1, 59, 68.1, 65.2, 79.6, 67.7, 55.7, 70.4, 72.7, 57.5, 66.7, 54.2, 54.5, 55.9%"
same,growth,"0.25 µM, runs of 2021","inactive: 79.8, 79.7, 75.8, 73, 68.3 (2×), 57.1, 54.1, 52.3, 56.5, 57.5, 49.7, 53.2, 48.8, 50.7, 68.2 (2×), 70.8, 75.7, 63.5, 66.6, 65.6, 73.2, 69.9, 50.1, 47.9, 40.2, 41.2, 32.2, 35.4, 33.7 (2×), 34.5, 34.6, 32.3, 33.9, 74.8, 75.5, 70.5, 73.9, 56.3, 58.5, 57.9, 47.4, 51.9, 60.8, 55.8, 57.4, 62.8, 61.7, 62.2%"
same,growth,"0.25 µM, runs of 2022","inactive: 21.2, 21.7, 55.5, 61.1, 32.4, 50.4, 57, 69.5, 50.6, 66.1, 48.7, 52.6, 59.6, 52.9, 40, 63.6, 72, 44.2, 102, 83.4, 93.8% and active: 8.15%"
same,growth,"25 µM, runs of 1993","active: -10.5, -13.9, -56.2, -71.2, 4.73, -26.2, -16.5, -59.2, -49.5, -47.9, -58.5, -66.8, -9.95, -30.7, -29.8, -5.26, -29.4, -72.9, -52, -17.4, -10, -24.4, -43.5, -41, 1.88, -53.1, -50.6, -0.584, -3.18, -64.5, -54.5, -68.6, -72.8, -12.5, -4.62, -65.5 (2×), -54.3, -38.9, 9.21, -63.2, -56.5, -23.3, -70.9%"
same,growth,"25 µM, runs of 1994","active: -36.6, -70.8, -66.5, -68.6, -60.1, -40.8 (2×), -66.2, -44.9, -62.5, -26.8, -5.65, -71.2, -55.8, -45.4, -30.3, -50, -48, -34.1, -53.4, -46.9, -14.3, -60.4, -27.1, -26.6, -49.1, -16.6, -8.67, -32.4% and inactive: 149%, 10.3%, 11.4%"
same,growth,"25 µM, runs of 1995","active: -30.2, -52.5, -72.2, -51, -95.3, -43.1, -55.1, -59.2, -76.6, -59.6, -90.7, -44.9, -91.2, -49, -41 (2×), -33.4, -58.1, -48.9, -19, -44.5, -68.3, -49.9, -42.2, -49.7, -44.7, -51.7, -39, -38.4, -53.8, -45, -43.2, -46.2, -46, -41.1, -47, -16.1, -40.3, -40.9%"
